Data from PubChem BioAssay AID1347417 (National Center for Advancing Translational Sciences (NCATS), 2020).
The campaign covered roughly 120,000 compounds. About 5,300 (4.4%) were called active. The shares of active, inactive and inconclusive entries below differ from those in the screen. Calls follow the shape of the dose curve; as a rule, active = well fitted inhibition curve with a large enough effect; inconclusive = small, poorly fitted or top-dose-only effect; inactive = no such curve, though single readings can be large or run the other way. Potencies of inconclusive entries are doubtful fits and often do not repeat.
Potency is read from the fitted curve at half-maximal effect; tags tell the direction and shape of the fitted curve.

Assay: qHTS Primary assay for Inhibitors of Plasmodium falciparum Dd2 growth in vitro; also: nearly all actives have a fitted effect of over 65% in size;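 as to activity, negative = inhibition: plate controls were DMSO vehicle for no effect and reference drug for full effect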
Conditions: P. falciparum Dd2 growth, SYBR Green, 72 h; activity, negative = inhibition: at 28.9 µM (top of the series) unless noted; series mostly up to 28.9 µM
Outline: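 Readout: SYBR Green fluorescence, 485 nm excitation, 535 nm emission, after ~16 h lysis at 37C. Before that, Dd2-infected red cells (2.5% hematocrit) grew 72 h with compound, 29 uM top final concentration.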
For `CC(C)(C)CC(=O)N1CCN2C(=O)N(CC(N)=O)C(=O)[C@@H]2C1`, the Potency was “inactive”.
With `CCC(=O)N(C1CCOCC1)C1CCN(S(=O)(=O)c2ccc3c(c2)CCC3)CC1` the Potency was “inactive”.
With `COc1ccc(-c2cc(N3CCCC(NC(=O)c4ccc(N(C)C)cc4)C3)n[nH]2)cc1` (stereo not given) the Potency was “inactive”.
In the case of `Cc1ccc(C(=O)N2CCC(N3CC4CCCN4C3=O)CC2)cc1` (stereo not given), the Potency is reported as “inactive”.
With `O=C1CCC(C(=O)N2CCSCC2)CN1CCc1cccc(F)c1` (stereo not given) the Potency was “inactive”.
In the case of `Cc1ccc(C(=O)NCc2ccc(N(C)C)cc2)cc1NC(=O)c1nsc2ccccc12`, the Potency is reported as inconclusive: 17.8 µM [inhibitor, single point].
With `COc1ccc(Cn2c(C3CCN(C(=O)c4ccc(C#N)cc4)CC3)n[nH]c2=O)cc1` the Potency was inconclusive: 10 µM [inhibitor, single point].
For `O=C(CCn1cnc2ccccc2c1=O)N1CCCC(Nc2ccccc2)C1` (stereo not given), the Potency was “inactive”.
For `O=C1CC(c2ccccc2)N(Cc2ccncc2)CCCN(C(=O)CC2CCCC2)CCN1` (stereo not given), the Potency was inconclusive: 14.1 µM [inhibitor, partial curve, poor fit].
In the case of `Cn1nccc1CN1CCC2(CNc3ccccc3[S+](=O)([O-])N2)C1` (stereo not given), the Potency is reported as “inactive”.
In the case of `CC1CCC(NC(=O)c2ccc3c(c2)N(Cc2ccccc2)C(=O)c2ccccc2S3=O)CC1` (stereo not given), the Potency is reported as inconclusive: 10 µM [inhibitor, partial curve, poor fit].
For `CCOC(=O)c1c(C)[nH]c(CCC(=O)Nc2cc(C)ccc2OC)c1C`, the Potency was inconclusive: 8.91 µM [inhibitor, partial curve].
For `CCOC(=O)c1cccc(NC(=O)CN2C(=O)c3ccccc3Sc3ncccc32)c1`, the Potency was inconclusive: 10 µM [inhibitor, single point].
With `COc1ccc(C(=O)N2CCCN(C)c3ccccc32)cc1` the Potency was inconclusive: 17.8 µM [inhibitor, single point].
For `CCOc1cc(=O)n2c(c1C(=O)NCc1ccccn1)CCCCC2`, the Potency was “inactive”.
For `CCC1(C(=O)NCCCN2CCCC2=O)CCCCC(=O)N1` (stereo not given), the Potency was “inactive”.
With `CCN1CCN(CCCNC(=O)c2cc3c(=O)n(C)c4ccccc4c3s2)CC1` the Potency was active: 3.16 µM.
With `CCCc1nn2c(=O)cc(COC(=O)c3cccc(NC(=O)COc4ccccc4C)c3)nc2s1` the Potency was inconclusive: 0.891 µM [inhibitor, full curve].
In the case of `O=C(C1CCCCC1)N1[C@H]2CC[C@@H]1c1cnc(-c3ccccc3)nc1C2`, the Potency is reported as inconclusive: 10 µM [inhibitor, single point].
With `O=C1c2c(nc(COc3ccc(Cl)cc3)n2Cc2ccccc2)NCCN1CCOc1ccccc1` the Potency was inconclusive: 12.6 µM [inhibitor, partial curve, poor fit].
In the case of `COc1ccc(C(O)Cn2ccn3nc(-c4ccc(C(C)C)cc4)cc3c2=O)cc1` (stereo not given), the Potency is reported as inconclusive: 17.8 µM [inhibitor, single point].
In the case of `O=C(NCC1Cn2cccc2CN1Cc1ccccc1)c1ccco1` (stereo not given), the Potency is reported as inconclusive: 12.6 µM [inhibitor, single point].
In the case of `CCC(C)Nc1ccc2nncn2n1` (stereo not given), the Potency is reported as “inactive”.
With `CCc1ccccc1NC(=O)Cn1c(=O)n(Cc2ccc3c(c2)OCO3)c(=O)c2ccc(C(=O)NC3CCCCC3)cc21` the Potency was inconclusive: 1 µM [inhibitor, single point].
With `NC(=O)c1cccc(CN2CCC3(C2)CN(C(=O)C2CCCC2)c2ccccc2CO3)c1` (stereo not given) the Potency was inconclusive: 7.08 µM [inhibitor, partial curve].
In the case of `CCOC(=O)c1ccc(Nc2c(-c3ccc(O)c(OC)c3)nc3nc[nH]n23)cc1`, the activity, negative = inhibition is reported as inactive: 33.5% [at 0.594 µM].
For `CCOc1ccccc1C(=O)N1CCN(c2cc(-c3ccc(OC)cc3)[nH]n2)CC1`, the Potency was inconclusive: 0.891 µM [inhibitor, full curve].
In the case of `COCC(=O)N1CCC(N2C[C@H](O)C[C@H]2C(=O)NCc2cccc(OC)c2)CC1`, the Potency is reported as “inactive”.
For `COc1cc2c(cc1OCc1ccccc1)N(C(=O)CC(C)C)CC21CCN(C)CC1`, the Potency was inconclusive: 3.55 µM [inhibitor, single point].
For `O=C1NCc2ccccc2CC12CCCCN2Cc1cccc(F)c1F` (stereo not given), the Potency was inconclusive: 7.94 µM [inhibitor, partial curve, poor fit].
In the case of `COCCCNC(=O)c1oc2c(c1C)-c1nn(Cc3cccc(Cl)c3)cc1CC2`, the Potency is reported as inconclusive: 17.8 µM [inhibitor, single point].
With `CC(C)c1nc2nccc(-c3ccc4c(c3)OCCCO4)n2n1` the Potency was “inactive”.
In the case of `CCO[C@H]1CN(Cc2ccccc2OCC(=O)N2CCC(C)CC2)C[C@@H]1O`, the Potency is reported as inconclusive: 8.91 µM [inhibitor, single point].
In the case of `COCCc1nncn1C1CCN(C(=O)Cc2c(F)cccc2Cl)CC1`, the Potency is reported as “inactive”.
With `O=C(CCC[C@H]1NC[C@@H]2C[C@H]1CN(Cc1ccccc1)C2)NCCCN1CCCc2ccccc21` the Potency was inconclusive: 1.41 µM [inhibitor, full curve, poor fit].
With `COc1cccc(CN2C(=O)OC3(CCN(Cc4ccc(F)cc4)CC3)C2(C)c2cccnc2)c1` (stereo not given) the Potency was active: 0.794 µM.
For `CC(C)c1noc(-c2cccn3c(CNC(=O)c4cccc(F)c4)nnc23)n1`, the Potency was inconclusive: 12.6 µM [inhibitor, single point].
In the case of `Cc1ccc(NC(=O)CN(C)S(=O)(=O)c2ccc3c(c2)n(C)c(=O)c(=O)n3C)cc1C`, the activity, negative = inhibition is reported as inconclusive: -76.7% [inhibitor] [at 0.594 µM].
In the case of `CCC1Oc2ccc(NC(=O)c3ccc([N+](=O)[O-])cc3)cc2CN(Cc2ccccc2)C1=O` (stereo not given), the Potency is reported as inconclusive: 3.55 µM [inhibitor, single point].
For `CC(C)(C)OC(=O)N1CC(Nc2ccc(Oc3ccccc3)cc2)C1`, the Potency was “inactive”.
With `COCCOC1CN(C2CCN(C(=O)NC(C)(C)C)CC2)C12CCCCC2` (stereo not given) the Potency was “inactive”.
For `COc1cccc(-c2cc(C(=O)Nc3cc(Cl)ccc3O)on2)c1`, the Potency was active: 1 µM.
For `CCOc1ccccc1CN(CCc1ccc2c(c1)OCO2)Cc1ccc(CC)cc1`, the Potency was inconclusive: 11.2 µM [inhibitor, single point].
In the case of `CN(C)C(=O)C1CCc2nnc(C3CCN(C(=O)c4ccc(Cl)cc4Cl)CC3)n21` (stereo not given), the Potency is reported as “inactive”.
With `COc1cccc(NC(=O)c2ccc3c(c2)N(C)C2CCCCCN2C3=O)c1` (stereo not given) the Potency was “inactive”.
In the case of `Cc1[nH]cnc1C(=O)N1CCOc2c(O)cc(-c3csc4ccccc34)cc2C1`, the Potency is reported as inconclusive: 12.6 µM [inhibitor, partial curve].
For `Nc1cccc(-c2cn(C[C@H]3CC4CCN3C[C@@H]4C(=O)Nc3ccccc3)nn2)c1` (stereo not given in full), the Potency was active: 7.94 µM.
In the case of `COc1ccc(CNC(=O)CSc2nc(-c3ccc(OC)cc3)cc(C(F)(F)F)n2)cc1`, the Potency is reported as “inactive”.
In the case of `CCC(O)c1cc2n(n1)CCCN(C(=O)CCc1ccsc1)C2` (stereo not given), the Potency is reported as “inactive”.
With `CN1CC(=O)N(C2CCNCC2)Cc2c(NCCOc3ccccc3)ncnc21` the Potency was “inactive”.
In the case of `Cc1ccc(NC(=O)c2cc(-c3ccc[nH]3)n[nH]2)cc1C`, the Potency is reported as inconclusive: 1.78 µM [inhibitor, partial curve].
In the case of `Cn1cc(-c2ccccc2)cc1C(=O)N1CCOCC1`, the Potency is reported as “inactive”.
In the case of `COc1ccc(-c2cc(C(=O)O)n(Cc3ccccc3)n2)cc1`, the Potency is reported as inconclusive: 1 µM [inhibitor, full curve, poor fit].
For `CSCc1ccc(N2CCC(C(C)N3CCCC3)CC2)nc1` (stereo not given), the Potency was “inactive”.
In the case of `O=C(CSc1nc2ccccc2nc1Cc1ccccc1)NCc1ccccc1Cl`, the Potency is reported as inconclusive: 8.91 µM [inhibitor, partial curve, poor fit].
For `CCOc1ccc(CNCc2c(C(=O)O)n(Cc3ccccc3F)c3cc(OC)ccc23)cc1`, the Potency was inconclusive: 10 µM [inhibitor, partial curve, poor fit].
For `O=C(O)C1CCc2nnc(C3CCCN(C(=O)c4ccc5c(c4)OC(F)(F)O5)C3)n21` (stereo not given), the activity, negative = inhibition was inconclusive: -39.7% [inhibitor].
For `Cc1cccc(OCC2(CNC(=O)c3ccc(F)cc3)C[C@@H](O)[C@@H](O)C2)n1` (stereo not given in full), the Potency was “inactive”.
In the case of `Cc1nc2cccnc2n1CC1CCCN(S(=O)(=O)c2cccc(Br)c2)C1` (stereo not given), the Potency is reported as active: 6.31 µM.
With `COC(=O)C(NC(=O)CC(C)C)(Nc1nc2c(s1)CCCC2)C(F)(F)F` (stereo not given) the Potency was inconclusive: 17.8 µM [inhibitor, single point].
With `Cc1cc(C)c(NC(=O)Cn2c(=O)n(CC(=O)NCc3ccccc3Cl)c(=O)c3sccc32)c(C)c1` the Potency was inconclusive: 0.0891 µM [inhibitor, full curve, poor fit].
For `N#Cc1ccc(CN2CCCC(c3nccn3Cc3ccccc3)C2)cc1` (stereo not given), the Potency was inconclusive: 7.94 µM [inhibitor, partial curve, poor fit].
With `OC[C@@H]1CN(Cc2ccccc2)C[C@H]1c1nc(-c2ccncc2)no1` the Potency was inconclusive: 17.8 µM [inhibitor, single point].
With `O=C(COc1ccc(F)cc1)N1CCC(c2n[nH]c(=O)n2-c2ccccc2)CC1` the Potency was inconclusive: 2.51 µM [inhibitor, single point].
For `Cc1cccc2nc(-c3ccco3)c(Nc3ccc4c(c3)OCO4)n12`, the Potency was inconclusive: 17.8 µM [inhibitor, single point].
In the case of `O=C(CN1C(=O)NC(c2ccc(Cl)cc2)C2=C1COC2=O)NCc1ccccc1Cl` (stereo not given), the Potency is reported as “inactive”.
In the case of `O=C(NC1CC1)c1ccc2nnc(-c3ccc(C(F)(F)F)cc3)n2c1`, the Potency is reported as “inactive”.
In the case of `O=C(NCCc1ccc(Cl)cc1)c1nc(-c2ccc(Cl)nc2)c2ccccn12`, the Potency is reported as inconclusive: 7.08 µM [inhibitor, partial curve, poor fit].
For `O=C(COc1ccc(F)cc1)N1C[C@@H](CO)[C@H](c2ccncc2)C1`, the Potency was “inactive”.
For `Cc1ccc(S(=O)(=O)N(CC(O)Cn2c3ccccc3c3ccccc32)c2cccc(C(N)=O)c2)cc1` (stereo not given), the Potency was active: 10 µM.
